Test results reported in the BET-seq Pho4 binding data (Le et al. 2018).
Some of the results follow. These are noisy estimates, calculated here from bound and input reads.

The sequences below were run against T1, Pho4 (S. cerevisiae) (UniProt P07270) (assay: relative binding free energy (BET-seq); higher = weaker binding). Conditions: reference: library average.
T1 sequence: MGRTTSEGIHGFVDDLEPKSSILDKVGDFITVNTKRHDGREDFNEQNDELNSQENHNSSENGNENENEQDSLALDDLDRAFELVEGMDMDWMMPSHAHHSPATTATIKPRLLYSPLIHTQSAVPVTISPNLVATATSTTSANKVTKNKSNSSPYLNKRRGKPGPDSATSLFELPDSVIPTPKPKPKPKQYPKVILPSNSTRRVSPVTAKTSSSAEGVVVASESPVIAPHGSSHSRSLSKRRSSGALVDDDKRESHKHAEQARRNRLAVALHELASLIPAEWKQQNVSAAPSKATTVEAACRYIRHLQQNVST

Sequence	relative binding free energy [kcal/mol]
CATCACACGTGGTTTG	0.2
GGGATCACGTGATAGA	0.47
TTGTGCACGTGCGAAT	-0.03
TGTGGCACGTGACTAA	-0.02
CTTTGCACGTGGCGGT	-0.19
TGGGACACGTGGACGT	-0.04
GAGAACACGTGAAGGT	0.37
TAGTTCACGTGAGGAT	0.37
TAGCGCACGTGTTATG	0.01
TCTGTCACGTGTGTTT	0.26
TAGAACACGTGAAGTT	0.28
CGATCCACGTGTTGGG	0.16
ACTGTCACGTGGTTGA	0.09
CTTAACACGTGGTGTA	-0.24
TGTTACACGTGTGTCT	0.19
TGTGTCACGTGCGGGG	0.02
ATGTTCACGTGTTGCC	0.33
AGTATCACGTGCTGAT	0.2
TGTCACACGTGAGCTT	0.42
GTGGACACGTGAGGTC	0.42
TGGATCACGTGTATTG	0.07
GTGATCACGTGTCGGG	0.2
TTTGTCACGTGTGGAG	0.08

Sequence	relative binding free energy [kcal/mol]
GAGTTCACGTGGCTTG	0.2
GGGTTCACGTGAAAGT	0.55
ATGTACACGTGAGAGT	0.46
GCGTACACGTGGAGGG	0.09
CGTCGCACGTGTGTTT	-0.02
TAAAACACGTGGGGGA	-0.13
TGTTACACGTGCGGCG	0
TTGGTCACGTGGGACT	0.04
TTTGGCACGTGTGCGC	-0.18
ATTTCCACGTGGTGAG	-0.04
AGTTGCACGTGTGCGC	-0.04
GTAGCCACGTGGTGGG	-0.12
ACTATCACGTGAAGTT	0.49
ATATGCACGTGGTCGA	-0.08
CTGGACACGTGTGAGG	0.09
TTTGTCACGTGTAACG	0.36
TAGGCCACGTGGTATA	-0.11
TTGTGCACGTGACATG	0.01
CGCGACACGTGGTAGG	-0.05
AGGAACACGTGGGGTG	-0.19
AGTTACACGTGTTGAA	0.24
TAGTGCACGTGTTACG	0
AGCGGCACGTGGTTAT	-0.14

Sequence	relative binding free energy [kcal/mol]
ATAGTCACGTGAATAG	0.48
AAGGGCACGTGAACGG	0.05
AGAGTCACGTGTTAAT	0.07
CTTTGCACGTGGGGAT	-0.21
AAGCGCACGTGGGTTG	-0.16
AGGAGCACGTGGTGAA	-0.19
ATTGTCACGTGTGATA	0.13
ATGTTCACGTGATTGT	0.35
ATTTGCACGTGATATT	0.11
TTGACCACGTGAGGTT	0.15
CCGGACACGTGGGGGT	-0.2
TCTGTCACGTGGGATC	0.06
AGTTTCACGTGTTAAG	0.3
TAAAGCACGTGGGTGA	-0.29
AGCGACACGTGGGATT	0.04
CTTGTCACGTGTGAGT	0.13
GGCAGCACGTGTGGTT	0.01
TCTTTCACGTGATAGA	0.28
GGCGGCACGTGGAGGC	-0.18
CGGCGCACGTGCGTGG	-0.16
TGTAGCACGTGTGTAG	0.03
GCGCGCACGTGGGGTA	-0.29
TGCTTCACGTGGTGCA	0.12

Sequence	relative binding free energy [kcal/mol]
CTGTTCACGTGTTGAT	0.28
AAGTGCACGTGTGAGC	0.1
GCTGTCACGTGACGGG	0.29
GATGGCACGTGTCAGT	-0.06
TGAACCACGTGTTGGG	-0.06
TGTTTCACGTGTGCGT	0.26
TTTTACACGTGTTCAA	0.03
AGTGGCACGTGCGGAG	-0.13
TGGACCACGTGTGTAA	0.07
GGATACACGTGGAGGG	0.1
ATGGTCACGTGTCTTA	0.12
TGTTTCACGTGAATTA	0.26
TGTAACACGTGGGCAT	-0.17
TAGTTCACGTGTAAAT	0.31
CAGAGCACGTGGTTGG	-0.2
CGGTACACGTGAGGGC	0.27
TAGGGCACGTGATTAA	-0.08
GGGGCCACGTGTAATT	0.14
TGGTTCACGTGCGCGG	0.12
AAGTTCACGTGCGGCG	0.42
AGTTCCACGTGTGCTG	0.06
TAGGTCACGTGAGGTA	0.21
ATTAGCACGTGGGAAG	-0.03

Sequence	relative binding free energy [kcal/mol]
GAGTACACGTGGACTG	0.28
TGTTGCACGTGGACAA	0.02
CGAGTCACGTGTTGTT	0.12
AGATTCACGTGAGGAA	0.46
CCGGGCACGTGTAGTG	-0.18
TTAAACACGTGGGGTA	-0.2
TCATTCACGTGGGCGT	0.22
GAAGGCACGTGGTGGG	-0.09
GGATCCACGTGTGATG	0.15
GTTTACACGTGATGCG	0.19
AGATGCACGTGTGGGC	0.06
TTAGTCACGTGTGGCC	0.09
TGTGACACGTGTGTGG	-0.06
CTGAGCACGTGAGGTT	0.18
TATGTCACGTGTAGAG	0.06
CGGTCCACGTGTGGGC	0.11
ATTGACACGTGTTCGT	0.01
TCGGGCACGTGGAACG	0.07
GCTGTCACGTGTTGGT	0.15
GTAAACACGTGTGCTT	0.07
GAGATCACGTGCTGTT	0.1
TGATCCACGTGGGGGA	-0.19
TAAGCCACGTGGGGAG	-0.2
